Measurements reported in ChEMBL document CHEMBL4888484, “Replenishing the malaria drug discovery pipeline: Screening and hit evaluation of the MMV Hit Generation Library 1 (HGL1) against asexual blood stage Plasmodium falciparum ,using a nano luciferase reporter read-out” (2022).
The whole screen tested about 150,000 compounds, of which about 540 (0.36%) showed an effect of 50% or more. Some of the results follow.

These molecules were tested on Plasmodium falciparum (assay: Primary screen in NF54 nanoGlo assay, in single point, at 2uM, 72h; a lower Z score goes with more inhibition). Conditions: timepoint 72 hour.
Assay type: functional, Erythrocyte

| Compound | % Inhibition [%] | Z score |
| --- | --- | --- |
| N#Cc1cccnc1N1CCOC2(CCCC2)C1 | -4 | 0.64 |
| Cc1nccn1[C@@H](C)CC(=O)NCC1=CCCCC1 | -7 | 0.79 |
| CNC(=O)c1ccc(N(C)CC2(O)CCCC2)nn1 | -5 | 0.69 |
| Cc1cc(CN(C)C(=O)Nc2nc(C)ns2)ccn1 | -8 | 1.28 |
| Cc1csc(NC(=O)C(=O)c2ccc(O)cc2)n1 | -6 | 0.76 |
| Cc1cc(NC(=O)COc2ccccc2)on1 | 3 | -0.35 |
| Cc1csc(NC(=O)NCCc2nnc(N)o2)n1 | 2 | -0.46 |
| OCC[C@H]1CN(C/C=C/c2ccccc2)CCN1CC1CCCCC1 | -8 | 1.26 |
| CN=C(NC)N[C@@H](C)c1ccc(OCC2CC2)c(F)c1 | -5 | 0.52 |
| CCn1c(C)cc(C(=O)N(C)Cc2c(C)nc3ccccn23)c1C | -17 | 3.38 |
| O=C1CCCCCN1CC(=O)N1CCC[C@H](n2cccn2)C1 | -4 | 0.51 |
| CCCCCS(=O)(=O)N1CC[C@H](CO)C1 | -2 | 0.24 |
| COc1ccccc1N1CCN2c3ccc(C(F)(F)F)cc3CC(C(=O)NC3CCCCC3)C2C1 (stereo not given) | -16 | 1.79 |
| Cn1cc(S(=O)(=O)NCC(=O)NC2CCCCC2)cn1 | -4 | 0.52 |
| Cc1ccc(CN(C)C2CCN(CCn3cccn3)CC2)s1 | -12 | 0.98 |
| CC(C)CN(Cc1cccnc1)C1CN(C(=O)CCc2nc3ccccc3s2)C1 | -2 | 0.31 |
| CC1(C)CN(C(=O)CCCN2CCCC2=O)CC[C@]1(C)O | 1 | -0.21 |
| O=C(c1[nH]nc2c1CCC2)N1CCN(S(=O)(=O)c2ccc(Cl)cc2)CC1 | 34 | -3.85 |
| O=C(CCc1cn[nH]c1)NC[C@H]1CC[C@H](CO)CC1 | -9 | 1.07 |
| O=C(c1coc2ccccc12)N1CCN(C2CCCCC2)CC1 | 3 | -0.45 |
| CC1CC(N(C(=O)c2ccc(C(C)(C)C)cc2)c2ccccc2)c2ccccc2N1 (stereo not given) | 3 | -0.33 |
| O=C(CN(CCc1cccc(F)c1)C1CC1)N1CCOCC1 | -2 | 0.31 |

| Compound | % Inhibition [%] | Z score |
| --- | --- | --- |
| O=C(Nc1cc(F)c(F)c(F)c1)[C@H](Cc1ccccc1)NC(=O)N1CCOCC1 | -3 | 0.39 |
| CCOc1ccccc1NC(=O)[C@H]1CCCN(C(=O)c2ccc(OC)c3ccccc23)C1 | -14 | 2.67 |
| COc1ccc(CN(Cc2ccco2)C(=O)c2ccc(Cl)cc2)cc1OS(=O)(=O)c1cccc(C(F)(F)F)c1 | -6 | 0.6 |
| Cc1cnc(C(=O)N2CCC[C@H](c3nc(C4CCOCC4)no3)C2)cn1 | -4 | 0.66 |
| COCc1ccc(S(=O)(=O)Nc2nccc(C3CC3)n2)cc1 | -4 | 0.36 |
| CC(c1cn[nH]c1)N1C(=O)C2CC3CCCCC3N2C1=O (stereo not given) | -2 | 0.42 |
| COCc1nc(C)cc(NC[C@@H](CO)Cc2ccncc2Cl)n1 | 1 | -0.1 |
| COc1ccc(-c2ccc(C(=O)Nc3ccc(-c4nc5ncccc5o4)cc3)o2)cc1Cl | -21 | 3.05 |
| O=C(NC[C@@H]1CCCN1)Nc1cc(F)cc(Cl)c1 | 3 | -0.6 |
| FC(F)(F)c1cccc(C2(c3nnc(-c4ccccc4)o3)CCOCC2)c1 | -9 | 1.56 |
| Cc1[nH]nc(C(N)=O)c1NC(=O)CCc1ccc(Cl)s1 | 1 | -0.11 |
| O=C(c1nnc(-c2csc(S(=O)(=O)N3CCCC3)c2)o1)N1CCCCC1 | -1 | 0.13 |
| Cc1c(-c2ccc(F)cc2)nn(Cn2cc(Cl)cn2)c1-c1ccc(F)cc1 | 33 | -3.68 |
| Cc1csc(CCNC(=O)c2c(C)c(C)n[nH]c2=O)n1 | -4 | 0.68 |
| CN(C)S(=O)(=O)N1CCCC[C@H](NC(=O)c2ccsc2)C1 | -9 | 0.9 |
| C=CCN1C[C@@H](C(=O)N2CCc3[nH]c(-c4ccccc4)nc3C2)CC1=O | -3 | 0.62 |
| CC(C)[C@H](C)NC(=O)N(C)CCCc1nccn1C | -7 | 1.33 |
| O=C(NCCN1CCCCC1)c1ccc(OCc2nnc(C(=O)Nc3ccccc3F)s2)cc1 | -12 | 1.09 |
| O=C(C1CCCC1)N1CCC2(CC1)NCC(=O)N2Cc1cccc(C(F)(F)F)c1 | -6 | 0.68 |
| CCOC(=O)c1[nH]cnc1C(F)(F)F | -3 | 0.41 |
| O=C(Nc1cc(-c2ccccn2)no1)C1CCCC1 | -18 | 1.69 |
| CCc1noc(C(C)N(C)CC2CCN(Cc3ccc(C)s3)C2)n1 (stereo not given) | 3 | -0.52 |

| Compound | % Inhibition [%] | Z score |
| --- | --- | --- |
| CN1CCCC[C@@H]1CCC(=O)N1CC(OCc2ccccc2)C1 | -8 | 1.48 |
| O=C(Cc1cccnc1)N1CCC(F)(C(=O)N2CCCC2)CC1 | -4 | 0.57 |
| CC(=O)Nc1ccc(C(=O)OCC2CCCCC2)cc1 | -7 | 1.15 |
| CN1CCC[C@H](CCC(=O)N(C)CCCc2cnn(C)c2)C1 | -6 | 1.11 |
| CN(CC(=O)N1CCC2(CCC(=O)N(Cc3ccccc3)C2)CC1)C(N)=O | -14 | 2.67 |
| COc1ccc(C2=NN(C(=O)CN(CCN3CCOCC3)C(=O)CC(C)(C)C)[C@H](c3ccc4c(c3)OCO4)C2)cc1 | -11 | 1.49 |
| COc1cc(-c2noc(C)n2)ccc1OCc1cccc(C)c1 | -8 | 1.41 |
| c1cc2c(cc1-c1nnc3n1CCCC3)OCCO2 | 29 | -3.93 |
| CN1C(=O)COc2c(NC(=O)NC3CC3)cccc21 | -10 | 1.3 |
| O=C1c2ccccc2C(=O)N1CCCCN(C(=O)c1ccc(S(=O)(=O)N2CCOCC2)cc1)c1ccc(Cl)cc1 | 5 | -0.68 |
| CCc1noc(C)c1C(=O)Nc1cccc(Oc2cccnn2)c1 | -15 | 2.44 |
| CCCCN1CCN(C(=O)c2ccc3ncsc3c2)CC1=O | -13 | 1.77 |
| O=C(O)C1CCN(c2cc(-n3ccc4ccccc43)ncn2)CC1 | -1 | 0.2 |
| CC1CCC(CCC(=O)NCc2nc3ccccc3n2C2CC2)O1 (stereo not given) | 0 | -0.02 |
| O=C(c1ccc(=O)[nH]c1)N1CC[C@@]2(CCCN(Cc3ccc(F)c(F)c3)C2=O)C1 | -11 | 1.76 |
| COc1ccc(CN(C(=O)NCCN2CCCC2)C2CCCC2)cc1OC | 0 | -0.09 |
| CCCn1cnnc1CN(C)C(=O)c1ccoc1C | 19 | -2.4 |
| Cc1ccsc1-c1nccn1Cc1c(C)noc1C | -17 | 1.68 |
| COc1cnc(C(=O)NCCc2ccccc2OC)cc1O | 27 | -3.11 |
| O=C(CCc1cccs1)NCC1CCCC1 | -4 | 0.64 |
| CCOC[C@H]1CCN(Cc2nc3cc(Br)ccc3o2)C1 | -5 | 0.92 |
| Cc1cc(NC(=O)C(C)N2CCN(CC(C)O)CC2)on1 (stereo not given) | -7 | 0.76 |

| Compound | % Inhibition [%] | Z score |
| --- | --- | --- |
| CN(C)C(=O)c1ccc(S(=O)(=O)NC2CCCCCC2)s1 | -8 | 1.54 |
| COCCC(=O)N1CCC[C@@]2(CCC(=O)N(Cc3ccccn3)C2)C1 | -3 | 0.47 |
| Cc1ccc(OCC(=O)Nc2cc(C)nn2-c2nc3c(cnn3-c3ccc(C)c(C)c3)c(=O)[nH]2)cc1 | 44 | -11.73 |
| CO[C@@]12CC[C@@H](NC(=O)C3CCC3)C[C@@H]1N(C(=O)CCn1cnnc1)CC2 | 1 | -0.12 |
| Cc1ccc(C(C)C)c(Oc2nc3ccccc3nc2N2CCOCC2)c1 | -16 | 1.82 |
| C[C@@H](C(=O)N(C)CC1CCOCC1)c1n[nH]c(=O)c2ccccc12 | -8 | 1.64 |
| C=CCc1cc(CN2CCC[C@H]2C(=O)NC)cc(OCC)c1OC | -14 | 1.78 |
| O=C(CCN1CCN(CC(=O)N2CCCc3ccccc32)CC1)NCC1CCCCC1 | -5 | 0.73 |
| N#Cc1cccc(-c2nc(C3CC3)nn2-c2ccccn2)c1 | -7 | 1.25 |
| CC1CCN(c2nc(N3CCN(C)CC3)nc3c2CN(S(=O)(=O)c2cccc(Cl)c2)CC3)CC1 | 4 | -0.69 |
| O=C(Nc1cccc(COc2cccc(F)c2)c1)c1cc[n+]([O-])cc1 | -9 | 0.98 |
| Cc1cnc(-c2ccc(C(=O)N(C)C[C@@]3(C)CCN(C)C3)cc2)nc1N(C)C | -4 | 0.53 |
| Cc1ccc(-c2nnc([C@H](C)N3CCCN(c4ccccc4C#N)CC3)o2)cc1 | -6 | 0.73 |
| COc1ccc(C(=O)N2CCn3c2nc2ccccc2c3=O)cc1 | -2 | 0.28 |
| CNc1nc(C(=O)N(CCOc2ccccc2)C[C@H]2CCCO2)cs1 | -13 | 1.16 |
| O=S(=O)(c1ccccc1Br)N1C2CCC1CC(n1nccn1)C2 (stereo not given) | -12 | 1.92 |
| c1ccc2c(N3CCCCCC3)nnc(-c3nc(C4CC4)no3)c2c1 | 0 | 0.04 |
| Cc1cccc2ncnc(NCc3ccc(N4CCNC(=O)C4)cc3)c12 | 3 | -0.53 |
| Cc1ccc2[nH]c3c(=O)n(C)nnc3c2c1 | -10 | 2.09 |
